Measured values from PubChem BioAssay AID485297 (National Center for Advancing Translational Sciences (NCATS), 2010).
About 9,100 (2.8%) of roughly 320,000 compounds were called active. This list was built around the results that the source calls inconclusive (neither active nor inactive); the mix of calls is not that of the screen. Calls come from the whole dose curve; as a rule, active = well fitted activation curve with a large enough effect; inconclusive = small, poorly fitted or top-dose-only effect; inactive = no such curve, though single readings can be large or run the other way. No potency is given beside an inconclusive call; the fits are too rough.

Test: qHTS Assay for Rab9 Promoter Activators; note: nearly all actives have a fitted effect of over 60% in size; for activation, negative = inhibition: % of control where 0% means no effect
Settings: Huh7 Rab9 promoter-luciferase reporter, luminescence, 24 h; series mostly up to 9.22 µM; activation, negative = inhibition: at the top concentration
Method in brief: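 Promoter activation is measured as luciferase luminescence in Huh7 cells stably transfected with a Rab9 promoter–luciferase construct, following 24 h compound exposure at 37 °C and 10 min reagent incubation at ambient temperature.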
Potency is the fitted concentration of half-maximal effect; tags give direction and shape of the fitted curve.

SMILES	Potency	activation, negative = inhibition
COc1ccc2c(CC(=O)Nc3nc(C)cs3)coc2c1	inconclusive [activator, partial curve]	
Cc1ccc2c(c1)N(CCC(=O)NCCN1CCOCC1)C(=O)CO2		inactive: 4.64%
COc1ccc(NC(=O)CC2C(=O)Nc3ccccc3N2CC(=O)N2CCCC2)cc1 (configuration not stated)		inactive: -0.289%
Cc1ccc2oc(=O)n(CCOc3ccccc3)c2c1	inconclusive [activator, single point]	
O=C(CN1CCCC1)N1CCCc2ccccc21		inactive: -7.75%
Cn1ncc(Br)c1NC(=O)Nc1ccc(Cl)cc1		inactive: 17.3%
CC(C)COc1ccc(-c2nnc(-c3ccco3)o2)cc1	active: 316 nM	
Cc1ccc([N+](=O)[O-])cc1NC(=O)c1cccnc1		inactive: 0.372%
CC1CCc2c(sc3nc4n(c(=O)c23)CCS4)C1 (configuration not stated)	inconclusive [activator, single point]	
Cc1cc(=O)c2cc3nc(-c4cccnc4)oc3c(Br)c2o1	inconclusive [activator, single point]	
CC(C)c1ccc(-c2cc(C(=O)NN3CCN(C)CC3)c3ccccc3n2)cc1	inconclusive [activator, partial curve]	
Cc1ccc(C(=O)Nc2ccc3nccnc3c2)cc1	active: 447 nM	
CN(c1cnn(-c2ccccc2)c(=O)c1Cl)n1cccc1	inconclusive [activator, partial curve]	
CC(C)(C)c1csc(NC(=O)c2ccc(Cl)s2)n1	inconclusive [activator, full curve]	
CCC(CO)Nc1ncnc2c1cnn2-c1ccc(OC)cc1 (configuration not stated)	active: 1000 nM	
Cn1c(SCc2cccc(Br)c2)nnc1-c1ccncc1		inactive: 8.57%
Cc1nn2c(=O)c(NC(=O)c3ccc(Cl)cc3)cnc2s1	inconclusive [activator, single point]	
CCOc1cc(C(=O)N=c2sccn2C)ccc1OC(F)F	inconclusive [activator, partial curve]	
O=C(Nc1ccccc1-c1ccccc1)c1cnccn1		inactive: 10.5%
CC(NS(=O)(=O)c1cccc(Cl)c1)C(=O)Nc1ccc(-c2nc3ccccc3s2)cc1 (configuration not stated)	active: 2820 nM	
Nn1cnnc1SCC(=O)Nc1ccc(C2CCCCC2)cc1	inconclusive [activator, single point]	
Clc1ccc(-n2ncc3c(NCc4ccco4)ncnc32)cc1	active: 2510 nM	
COc1ccc(N2CCN(S(=O)(=O)c3ccc(OC)c(C(=O)N4CCOCC4)c3)CC2)cc1		inactive: -2.64%
Cc1ccc(-c2cc(C(=O)Nc3nn[nH]n3)c3ccccc3n2)cc1		inactive: 3.45%
CC(=O)c1cccc(S(=O)(=O)NCC2CCCCC2)c1	inconclusive [activator]	
Cc1csc2nc(CSc3nc4ccccc4o3)c(Br)n12	active: 2510 nM	

SMILES	Potency	activation, negative = inhibition
CSc1ccc(/C=N/Nc2cccc(C(=O)O)c2)cc1	active: 89.1 nM	
O=C(N/N=C1\CCCc2c1[nH]c1ccc(Cl)cc21)c1ccncc1	inconclusive [activator, partial curve]	
Cc1ccc(-n2nc3ccc(NC(=O)C(C)C)cc3n2)cc1	active: 355 nM	
CC(=O)NCCC(=O)Nc1nc2ccc(Oc3ccccc3)cc2s1	active: 891 nM	
CC1=C(C(=O)OCC2CCCO2)C(c2ccc(C)cc2)C2=C(CC(C)(C)CC2=O)N1 (configuration not stated)	inconclusive [activator, single point]	
Cc1cc(C)n2ncc(/C(N)=N/OC(=O)c3ccccc3F)c2n1	inconclusive [activator, single point]	
O=C(CCOc1ccccc1F)N1CCN(c2ccccc2O)CC1	inconclusive [activator, partial curve]	
Cc1ccccc1C(=O)Nc1ccc2c(c1)OCCO2	active: 398 nM	
CCOc1cc(/C=N/NC(=O)c2cccnc2)ccc1OCc1ccc(C(=O)OC)o1	inconclusive [activator, single point]	
CCOC(=O)c1c(C)[nH]c(C(=O)OCc2csc(CC(=O)Nc3ccccc3C)n2)c1C		inactive: -0.171%
Cc1ccc(C(=O)Nc2nccs2)s1	inconclusive [activator, partial curve]	
CC(=O)Nc1nc(COc2ccccc2)cs1	inconclusive [activator, single point]	
CSCC(=O)N1CCc2ccc(NC(=O)c3ccccc3Cl)cc2C1	inconclusive [activator, partial curve]	
O=C(O)c1cccc(-c2nc3ccccc3[nH]2)c1	inconclusive [activator, partial curve]	
Cc1cc2c(c(=O)o1)C(c1ccc([N+](=O)[O-])o1)C(C#N)=C(N)O2 (configuration not stated)		inactive: 8.1%
Cc1ccc2c(Cl)c(C(=O)Nc3cccnc3)sc2c1	active: 3980 nM	
CCN(C(=O)c1cccs1)c1nc(-c2ccc(OC)cc2)cs1	inconclusive [activator, partial curve]	
COc1cccc(NC(=O)CSc2nnc(-c3ccc(C)cc3)o2)c1	inconclusive [activator, partial curve]	
CCN(C(=O)CSc1ncnc2c1cnn2-c1ccccc1)C1CCS(=O)(=O)C1 (configuration not stated)		inactive: -1.86%
CCOc1ccccc1Oc1c(C)oc2c(CN3CCN(CCO)CC3)c(O)ccc2c1=O		inactive: 2.4%
CSc1nc(NCc2ccccc2)c2c3c(sc2n1)CN(C)CC3	inconclusive [activator, single point]	
O=C1CCC(C(=O)Nc2cccc(Oc3ccccc3)c2)=NN1		inactive: -5.09%
O=c1c2ccccc2nc(-c2ccccc2)n1Cc1ccccc1	inconclusive [activator, single point]	
CC(NC(=O)c1cccs1)c1nnc(SCc2ccc(Cl)cc2Cl)n1C (configuration not stated)		inactive: -0.119%
Cc1cc(Cl)ccc1OCc1nnc(-c2ccccc2C)o1	active: 3980 nM	
CCOC(=O)CSc1nc2cc3c(cc2cc1C#N)OCCO3	inconclusive [activator, partial curve, poor fit]	
